Reference: PubChem BioAssay AID2101 (National Center for Advancing Translational Sciences (NCATS), 2009)
Screen size: about 330,000 compounds; about 300 (0.091%) were called active. Inconclusive results, whose numbers are uncertain, are shown with a selection of clear calls. Calls come from the whole dose curve; as a rule, active = well fitted inhibition curve with a large enough effect; inconclusive = small, poorly fitted or top-dose-only effect, or effect the other way, or another doubt; inactive = no such curve, though single readings can be large or run the other way. No potency is given beside an inconclusive call; the fits are too rough.

biological target: Lysosomal acid glucosylceramidase (Homo sapiens) (UniProt P04062); assay: qHTS Assay for Inhibitors and Activators of N370S glucocerebrosidase as a Potential Chaperone Treatment of Gaucher Disease; conditions: N370S GC spleen homogenate, 4MU-glucoside fluorescence; activity change, negative = inhibition: at 59.4 µM (top of the series) unless noted;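 for activity change, negative = inhibition: 0% = full enzyme activity and -100% = no enzyme basal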
Potency is the fitted concentration of half-maximal effect.

| Compound | activity change, negative = inhibition | Potency |
| --- | --- | --- |
| Nc1ccc(NC(=O)NC2CCCCC2)cc1 | inactive: 3.93% |  |
| COc1ccc(NC(=O)OC(CN2CCCCC2)C(F)(F)F)cc1 (centres undefined) |  | inconclusive [inhibitor, single point] |
| Cc1ccc(C)c(Cn2nc(-c3ccccc3)ccc2=O)c1 |  | inconclusive [activator, single point] |
| O=C(NCc1ccccn1)c1cc(Cl)ccc1OCc1ccccc1 |  | inconclusive [activator, partial curve] |
| COc1cc2ccccc2cc1C(=O)N(CCN(C)C)c1nc2c(C)cccc2s1 |  | inconclusive [inhibitor, single point] |
| Cc1cccc(OCCn2c(=O)oc3ccc(C)cc32)c1 | inactive: 12.2% |  |
| COC(=O)c1c(NC(=O)CSc2nnc(-c3ccco3)n2Cc2ccccc2)sc(C)c1C |  | inconclusive [activator, single point] |
| CCOC(=O)c1c(C)nc2ccc(Cl)cc2c1-c1ccccc1 | inconclusive: 21.6% [activator] |  |
| COc1ccccc1-c1coc2c(CN(C)C)c(O)ccc2c1=O |  | inconclusive [activator, single point] |
| Cc1ccc(CNC(=O)CS(=O)(=O)c2cn(CC(=O)N3CCOCC3)c3ccccc23)cc1 |  | inconclusive [inhibitor, single point] |
| CCN1C(=O)/C(=C/N2CCc3ccccc3C2)SC1=S |  | inconclusive [activator, partial curve] |
| COC(=O)C1=CN(Cc2ccc(OC)c(OC)c2)C=C(C(=O)OC)C1c1cccc(F)c1 |  | inconclusive [activator, partial curve] |
| O=C(COc1ccccc1C(=O)NCC1CCCO1)Nc1ccc(Br)cc1 (centres undefined) |  | inconclusive [activator, partial curve] |
| C=C(C)[C@]12C[C@@H](C)[C@@]34OC(Cc5ccccc5)(O[C@@H]1[C@@H]3C=C(COC(=O)Cc1cc(OC)c(O)cc1I)C[C@]1(O)C(=O)C(C)=C[C@@H]41)O2 | inactive: -8.03% |  |
| CCN(CC)C(=O)CN(c1cc2c(cc1OC)oc1ccccc12)S(=O)(=O)c1ccccc1 |  | inconclusive [activator, partial curve] |
| C=CCSc1nnc(CSc2nc3sc4c(c3c(=O)[nH]2)CCCC4)n1-c1ccccc1 |  | inconclusive [activator, partial curve] |
| CCOc1ccc(NC(=O)c2cnccn2)cc1 | inactive: 5.05% |  |
| COCCCNCCOCCOc1ccc(Cl)cc1Br | inconclusive: 46.9% [activator] |  |
| C=CCc1cc(C)ccc1OCC(O)CN1CCN(c2ccccc2)CC1 (centres undefined) |  | inconclusive [inhibitor, partial curve, poor fit] |
